The values that follow come from publication PMC5075699.

Each structure is given as a SMILES string.

For data set [1] the following is noted: ref Sidrauski et al., 2013; Halliday et al., 2015; cited from earlier work.
For another data set, the system named is nontransgenic mice. Briefly: Pilot Morris water maze #1 (spatial learning and memory). The note with it: 72-hour probe trial, one sample t test against 25%.

Turning to `O=C(COc1ccc(Cl)cc1)NC1CCC(NC(=O)COc2ccc(Cl)cc2)CC1` (stereo not drawn) [ISRIB], the blood-brain-barrier penetration result in data set [1] was “not significantly excluded from the brain by the blood–brain-barrier”. For the same compound, the “time in the target quadrant compared to chance” value is “did not” with nontransgenic mice (0.1 mpk, p = 0.85) and “spent significantly more time in the target quadrant compared to chance” in the data set on nontransgenic mice (0.25 mpk, p = 0.009).
